Reference: article PMC6919601, “Identification of Plasmodium dipeptidyl aminopeptidase allosteric inhibitors by high throughput screening” (PLoS ONE, 2019)
About 230 (0.21%) of roughly 110,000 compounds showed an effect of 50% or more. The list shows a part of the results.

The compounds below were run against DPAP1 (Plasmodium falciparum, UniProt Q8IIJ9) (assay: primary screen, percent inhibition; read by cleavage of a fluorogenic dipeptide substrate; higher = more effect of the substance).
Parameters: species or system P. falciparum D10 trophozoite lysates; single well
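Note: 30 min substrate incubation versus DMSO and 10 µM JCP410 controls.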

Chain of DPAP1 (Q8IIJ9 whole entry, looked up): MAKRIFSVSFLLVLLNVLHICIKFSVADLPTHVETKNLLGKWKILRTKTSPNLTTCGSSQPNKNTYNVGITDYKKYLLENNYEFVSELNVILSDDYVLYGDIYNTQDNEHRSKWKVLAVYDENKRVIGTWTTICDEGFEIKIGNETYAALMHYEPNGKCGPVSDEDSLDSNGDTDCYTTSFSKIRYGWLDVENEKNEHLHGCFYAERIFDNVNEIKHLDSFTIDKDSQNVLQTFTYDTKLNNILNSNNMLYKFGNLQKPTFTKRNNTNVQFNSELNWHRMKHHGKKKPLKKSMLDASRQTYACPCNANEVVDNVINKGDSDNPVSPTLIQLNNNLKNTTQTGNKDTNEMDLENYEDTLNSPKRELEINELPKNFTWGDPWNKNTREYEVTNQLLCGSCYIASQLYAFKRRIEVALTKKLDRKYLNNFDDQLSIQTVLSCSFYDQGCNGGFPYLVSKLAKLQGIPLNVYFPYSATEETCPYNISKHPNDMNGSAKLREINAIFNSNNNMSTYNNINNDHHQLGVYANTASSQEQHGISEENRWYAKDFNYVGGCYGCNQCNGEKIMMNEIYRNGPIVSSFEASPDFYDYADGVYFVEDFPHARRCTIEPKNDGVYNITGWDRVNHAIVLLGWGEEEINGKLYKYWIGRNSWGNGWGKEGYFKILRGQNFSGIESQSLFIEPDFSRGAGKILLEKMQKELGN

Row | SMILES | % Inhibition @ 10 uM
1 | Oc1cc(-c2ccccc2)nc2c(-c3ccc(Cl)cc3)c(Cc3ccccc3)nn12 | 3.32%
2 | CCO/C(O)=C1\C(C)=NC2=C(C(=O)CCC2)C1c1ccco1 (centres unmarked) | 1.38%
3 | CC1=C(C(=O)Nc2ccccc2F)C(c2ccccn2)C2=C(O)CC(C)(C)CC2=N1 (centres unmarked) | -2.68%
4 | O=C(c1ccc(CS(=O)Cc2ccc(Cl)cc2)o1)N1CCN(C2CCCCC2)CC1 (centres unmarked) | 6.15%
5 | Cc1cc(C)c(S(=O)(=O)N2CCN(c3cccc(Cl)c3)CC2)c(C)c1 | 3.47%
6 | COc1ccc2c(CNCCc3cccs3)c(C(=O)O)n(Cc3ccc(C)cc3)c2c1 | -1.53%
7 | Cc1ccc(NC(=O)c2ccccc2Cl)cc1C | 0.526%
8 | Cc1nn(-c2ccc(Cl)cc2)c(O)c1/C=N/c1ccc(S(=O)(=O)N2CCOCC2)cc1 | 4.61%
9 | c1cncc(-c2nc3c4c5c(sc4ncn3n2)CCCC5)c1 | -6.22%
10 | COC(=O)C1=CN(CCc2ccc(F)cc2)C=C(C(=O)OC)C1c1ccsc1 | -1.83%
11 | Oc1ccnc2nc(C(Cl)(Cl)Cl)nc(-c3ccccc3)c12 | -1.82%
12 | C=CCOc1ccc(CNc2cccc(C(=O)O)c2)cc1 | 1.83%
13 | COC(=O)C1=C(C)N(C)C(=O)NC1c1ccc(Cl)cc1 (centres unmarked) | -1.56%
14 | CCOc1cc2c(cc1OCC)C(c1ccc3c(c1)OCO3)NCC2 (centres unmarked) | 2.49%
15 | Cc1ccc(N2C(=O)CC(NCc3ccc(Cl)cc3)C2=O)cc1Cl (centres unmarked) | -5.69%
16 | CC(C)(C)c1ccc(C(=O)N2CCC(C(=O)NC3CC3)CC2)cc1 | 1.52%
17 | COc1cc(C2C=C(c3ccc(Cl)cc3)Nc3nnnn32)ccc1OC(F)F (centres unmarked) | 3.12%
18 | O=C(NCc1ccc(F)cc1Cl)C1CCN(S(=O)(=O)N2CCC3(CC2)OCCO3)CC1 | -2.99%
19 | O=C(NCCc1ccccc1)N1CCN2CCCCC2C1 (centres unmarked) | -2.31%
20 | COc1cccc(N(CC(=O)NCc2ccc(Cl)cc2)S(C)(=O)=O)c1 | -1.96%
21 | Cc1ccc(C2=CC(c3ccccc3C)n3nnnc3N2)cc1 (centres unmarked) | -9.03%
22 | C=CCN(CC=C)S(=O)(=O)c1ccc(C(=O)Nc2sc3c(c2C(=O)OC)CCN(C)C3)cc1 | 6.31%
23 | Clc1ccccc1CN1CCN(Cc2ccco2)CC1 | 3.81%
24 | CCOC(=O)C1=C(CSc2nc(C)cc(C)c2C#N)OC(N)=C(C#N)C1c1ccc(F)cc1 (centres unmarked) | 1.76%
25 | Cc1nnc(N2CCC(C(=O)N3CCOCC3)CC2)c2nn(-c3ccc(Cl)cc3)c(C)c12 | 4.07%
26 | COC(=O)C1=CN(Cc2ccc(OC)cc2)C=C(C(=O)OC)C1c1ccc(C(F)(F)F)cc1 | -5.03%
